In all, about 33,000 sequences were measured (“E-score (-0.5 to 0.5)”: median about -0.013, highest 2% from about 0.3 on). This is one part of the list.
Target: T1, Msn1 (UniProt P22148)
T1 sequence: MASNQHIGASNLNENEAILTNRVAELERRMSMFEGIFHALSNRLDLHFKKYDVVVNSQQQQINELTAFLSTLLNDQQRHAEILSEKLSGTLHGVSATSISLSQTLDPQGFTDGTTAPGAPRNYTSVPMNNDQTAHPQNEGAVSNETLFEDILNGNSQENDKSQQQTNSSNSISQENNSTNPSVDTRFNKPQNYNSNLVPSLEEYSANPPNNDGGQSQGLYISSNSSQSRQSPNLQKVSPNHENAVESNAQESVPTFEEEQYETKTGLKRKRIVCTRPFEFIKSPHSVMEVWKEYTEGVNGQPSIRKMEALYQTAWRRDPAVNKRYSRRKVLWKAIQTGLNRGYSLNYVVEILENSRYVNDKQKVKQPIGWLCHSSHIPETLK
Assay: PBM E-score (8-mer binding enrichment) (E-score (-0.5 to 0.5)); higher = stronger / more preferred TF binding; most listed sequences are background and not binding sites
Details: protein concentration: 200 nM; construct: GST-full length
In short: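 Full-length yeast transcription factors or their DNA-binding domains, GST-tagged and expressed with PURExpress, were applied at about 100-200 nM to universal all-10-mer Agilent arrays. These arrays had been made double-stranded by primer extension on fresh or once-stripped slides. Detection used fluorescent anti-GST, normalisation used masliner, and E-scores for ungapped eight-base words pooled with reverse complements came from the Universal PBM Analysis Suite.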

| Sequence | PBM E-score |
| --- | --- |
| ATCCCGAA | 0.164 |
| TAAATTGA | 0.188 |
| AGAGCATG | -0.101 |
| AATGTTCT | 0.098 |
| AGTAAACT | 0.008 |
| GCGGACGA | 0.161 |
| ACCTGAAG | -0.113 |
| AGCGCGTA | 0.0604 |
| AAATAGGT | 0.0357 |
| AAGTCATG | 0.205 |
| ACACATTC | 0.11 |
| CACTGAGA | -0.0419 |
| AAATGAGA | -0.0056 |
| CGGCAGAG | -0.0649 |
| AATCGTTG | 0.0294 |
| AGAGGGAA | -0.118 |
| CCGCAACC | -0.182 |
| CCACTGAA | -0.0421 |
| CATTAGCC | -0.0526 |
| AGCCGACC | -0.216 |
| ACGAGATG | 0.0352 |
| GCTCTCTA | -0.264 |
| ATGCGATG | -0.0419 |
| GCGTAAAA | 0.028 |
| CGTTGAAA | 0.059 |

| Sequence | PBM E-score |
| --- | --- |
| CTTTTAGC | 0.0227 |
| TCACCAAA | 0.0099 |
| AACTCTAA | 0.141 |
| GGATGATA | -0.0756 |
| CTGGCCAG | -0.179 |
| GCGAGCAA | -0.0674 |
| CTCTAAAC | 0.114 |
| AAGCCTGT | 0.0168 |
| CGCCGCAC | -0.152 |
| CGACTGTC | 0.0367 |
| CGCAAATC | -0.0541 |
| CTGCCACA | -0.0324 |
| AGCACAAG | -0.218 |
| CGCGCCCG | -0.0907 |
| ACGCTCAA | 0.021 |
| AGATCCGA | 0.214 |
| CGAGAGCA | -0.112 |
| ATTTCCGC | 0.0913 |
| AACCGGTC | 0.0935 |
| CTTGAAAA | 0.117 |
| AATTTCCC | 0.137 |
| AGACCGGA | 0.0121 |
| ATCCCCTA | -0.217 |
| GTTACCTA | -0.144 |
| CAGGCTAA | -0.0305 |

| Sequence | PBM E-score |
| --- | --- |
| CGAAAACA | 0.068 |
| GATAGCCA | -0.093 |
| AGGCCCAG | -0.213 |
| CATGCTAC | -0.15 |
| ACCGAGTC | -0.162 |
| ACCGACAG | -0.0494 |
| ACTATATA | 0.256 |
| CCCGACCC | -0.138 |
| CTGATAAA | 0.242 |
| AGTTGAGA | -0.0677 |
| GCTTGCTA | -0.327 |
| AAGTTTCA | 0.0829 |
| CGCACACA | -0.0261 |
| GGCGCCAA | -0.0215 |
| CGTCAGTC | -0.0254 |
| GGCGGCCA | -0.161 |
| TATACTAA | 0.0532 |
| ATTTACGC | 0.047 |
| ATATTCGG | 0.11 |
| ACGTGCCA | -0.109 |
| CCCGCGGG | -0.0169 |
| ATCGTCTG | -0.0622 |
| GGACCGTA | -0.137 |
| AACAACGT | -0.0304 |
| GCACAGCA | 0.12 |

| Sequence | PBM E-score |
| --- | --- |
| GCACAGAA | -0.0452 |
| CCGGAGTA | 0.219 |
| CATACCAA | 0.119 |
| CTGCGTTC | -0.0885 |
| AGACGATC | -0.266 |
| ACTGGGAC | 0.262 |
| CTTGTTCC | 0.0718 |
| CATTGTAG | -0.125 |
| ACGACCTC | 0.0406 |
| AGGTATTG | 0.121 |
| ATTGTTTA | 0.113 |
| GAACACTA | -0.0576 |
| ATATACAT | 0.174 |
| CCTCCAGC | -0.299 |
| GAAACTAC | 0.0878 |
| AAATTCCT | 0.0228 |
| CGTGTCAG | 0.213 |
| CAGGCTAG | -0.24 |
| ACGCACGA | 0.149 |
| ATAGTTCG | 0.199 |
| CTGTGAAA | 0.2 |
| GGACGCAA | 0.0782 |
| ATAGTAAC | 0.11 |
| ATGCGTCC | 0.113 |
| ACGTTACT | 0.0702 |

| Sequence | PBM E-score |
| --- | --- |
| AACACAAA | 0.0581 |
| TCAAAGCA | 0.0823 |
| CATTGTCG | 0.21 |
| ACAGTCAA | -0.0879 |
| GCGAGCTA | -0.107 |
| AGAGTAAA | -0.0814 |
| CACAGGAG | -0.0449 |
| CTCGAACC | -0.0331 |
| CTGTGTGC | -0.157 |
| CGCTACGA | -0.0421 |
| CGTGCCCC | -0.303 |
| TAACAGTA | -0.0091 |
| TGAGATAA | -0.0628 |
| CGCCAAAA | 0.00992 |
| ACTTCGAC | 0.0429 |
| CATGCTGG | 0.0482 |
| ATCCAAGA | 0.0622 |
| CTCTGATC | -0.178 |
| GTGGAATA | -0.0199 |
| ACTCCGCG | -0.0578 |
| GACGAGCA | 0.00803 |
| ACGACAGA | 0.0256 |
| ATGTTGTG | 0.167 |
| ACCGGCGC | 0.00773 |
| ACCGCCAA | 0.0577 |

| Sequence | PBM E-score |
| --- | --- |
| AGGAACTG | -0.0153 |
| CATTCTTA | 0.122 |
| TCGACCAA | -0.118 |
| GTGGCGTA | -0.189 |
| TATTCCAA | 0.0327 |
| CTGTTACC | -0.0157 |
| GCGTAGAC | -0.142 |
| ATGTGGAC | 0.276 |
| CTACTTGA | 0.0202 |
| ATGGACGA | 0.273 |
| GCTCTAGA | -0.0989 |
| CCTTCTTA | -0.14 |
| GGCAGCCA | -0.0768 |
| CACAACCG | 0.0261 |
| ATAAGATC | -0.0136 |
| CAGATCCC | -0.219 |
| AGGACCGG | 0.0657 |
| GGACCGGA | 0.113 |
| CGTGAAGA | 0.00643 |
| CTGGACGC | -0.047 |
| GAATATCA | 0.119 |
| ACCAAAAC | 0.0126 |
| TAACACTA | 0.115 |
| ACCGGGAG | -0.249 |
| ATGTCTCC | 0.302 |

| Sequence | PBM E-score |
| --- | --- |
| AAAGAATG | 0.252 |
| AACCTCCT | -0.239 |
| GACCTGGA | -0.0908 |
| AGCCTAAC | -0.198 |
| AGTGGCCC | -0.243 |
| CAATCCGA | 0.102 |
| GCCCCACC | -0.249 |
| AGGTCATA | 0.0778 |
| ACATAAAT | 0.307 |
| CAGTCGAG | -0.122 |
| GGACTAAC | 0.175 |
| AGCAACAT | -0.0706 |
| CCGAGCTC | 0.111 |
| CCAGTGCA | -0.0783 |
| CCCCGGGA | -0.103 |
| AGAAGATC | -0.15 |
| AAACCACC | 0.0789 |
| CCTGCGGC | -0.266 |
| ACTACCCA | 0.0938 |
| GGCCCAGA | -0.257 |
| AAGCCGAT | 0.00466 |
| ATAATCAC | 0.11 |

— the supplement of paper PMC3334620
